Assay results from PubChem BioAssay AID1508623 (National Center for Advancing Translational Sciences (NCATS), 2021).
Among all 48,000 compounds or so, about 450 (0.94%) were called active. About 19% were inconclusive and are not listed. Calls follow the shape of the dose curve; as a rule, active = well fitted inhibition curve with a large enough effect; inconclusive = small, poorly fitted or top-dose-only effect; inactive = no such curve, though single readings can be large or run the other way. Some of the results follow.

Assay: Primary qHTS for Identification of Small Molecule Inhibitors of Huntingtin Promoter Activity; also: nearly all actives have a fitted effect of over 50% in size
Settings: HEK293 HTT promoter firefly luciferase reporter (activity 0% = vehicle and -100% = no light), 24 h; series mostly up to 57.5 µM; activity change, negative = inhibition: at the top concentration
Summary of the method: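 Quantitative HTS used concentration series of up to 57.5 uM final on HEK293 luciferase reporter cells, 24 h at 37 degrees C. Readout was Dual-Glo firefly luminescence.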
Potency is read from the fitted curve at half-maximal effect.

Row | SMILES | activity change, negative = inhibition | Potency
1 | CCOc1ccccc1Nc1nc2ccccc2c2nncn12 | inactive: -6.94% | –
2 | COc1cccc2c1cc1c(=O)n(CC(=O)N3CCN(c4cccc(C)c4C)CC3)nc(C)n12 | inactive: 7.77% | –
3 | CCOc1ccc(CNC(=O)c2ccc3oc(=O)n(Cc4ccccc4)c3c2)cc1 | inactive: -17.4% | –
4 | Cc1ccc(Cn2nnc3c(=O)[nH]c(C4CCN(C(=O)Cc5ccccc5F)CC4)nc32)cc1 | inactive: -18.1% | –
5 | Cc1ccc(CNC(=O)C2CCN(S(=O)(=O)N3CCCCC3)CC2)cc1 | inactive: -18.3% | –
6 | CCc1cccc(NS(=O)(=O)c2c(C)[nH]c(=O)[nH]c2=O)c1 | inactive: -10.9% | –
7 | CC1CCN(S(=O)(=O)c2ccc3c(c2)CCN3C(=O)Nc2ccccc2Br)CC1 | inactive: 3.18% | –
8 | COc1ccc2c(c1)cc(CNc1ccc(OC)c(OC)c1)c(=O)n2CC(=O)Nc1ccccc1C | inactive: -26.3% | –
9 | Fc1ccc(N2CCN(c3nc4ccccc4c4nc(-c5ccccc5)nn34)CC2)cc1 | inactive: -7.78% | –
10 | COc1ccc(OCC(=O)Nc2ccc(-c3nc4cc(C)cc(C)c4o3)cc2)cc1 | inactive: 28.4% | –
11 | COc1ccc(CC(=O)Nc2nc3c(s2)CC(C)CC3)cc1 (centres undefined) | inactive: 27.1% | –
12 | Cc1ccc(NC(=O)C2CCCN(S(=O)(=O)c3ccc4[nH]c(=O)ccc4c3)C2)cc1Cl (centres undefined) | inactive: -12.8% | –
13 | COc1ccc2c(c1)c1c(c(=O)n(CCc3ccccc3)c(=O)n1Cc1cccc(Cl)c1)n2C | inactive: -6.97% | –
14 | O=C(NCc1cccc(Cl)c1)c1c2c(nc3ccccc13)C(=O)N(C1CCCCC1)C2 | inactive: -10.6% | –
15 | CC(=O)Nc1cccc(NC(=O)c2cc3c(=O)n4cccc(C)c4nc3n2C)c1 | inactive: 8.05% | –
16 | CCCn1cc(S(=O)(=O)c2ccc(C)cc2)c(=O)c2cc(F)c(N3CCCC3)cc21 | inactive: 2.84% | –
17 | COc1cc(NC(=O)c2ccc(C)c(Cl)c2)ccc1NC(=O)c1cc2ccccc2o1 | inactive: -10.1% [at 11.5 µM] | –
18 | Cc1c(C(=O)NCc2ccc(Cl)cc2)oc2ccc3c(c12)C(=O)CC(C)(C)O3 | inactive: 13.3% | –
19 | Cc1ccc(CNC(=O)CSc2ncc3c(n2)-c2cc(Cl)ccc2N(C)S3(=O)=O)cc1 | inactive: -10.5% | –
20 | COc1nc(C)nc(Cl)c1NC1=NCCN1 | inactive | –
21 | COc1ccc(-n2ncc3c(NCCCOC(C)C)ncnc32)cc1 | inactive: -1.65% | –
22 | CCCCNC(=O)C1CCCN(S(=O)(=O)CCC)C1 (centres undefined) | inactive: -5.52% | –
23 | O=C(CCc1nc(CN2CCN(S(=O)(=O)c3ccc(Br)cc3)CC2)no1)N1CCCCC1 | inactive: -25% | –
24 | CCOc1ccccc1C1CC(=O)Nc2c1c(=O)n(C)c1ncnn21 (centres undefined) | inactive: -1.95% | –

Row | SMILES | activity change, negative = inhibition | Potency
25 | COc1cc2cc(CNc3ccccc3)c(=O)n(CC(=O)Nc3cccc(Cl)c3C)c2cc1OC | inactive: -12.1% | –
26 | CO/N=C(/C(=O)N[C@@H]1C(=O)N2C(C(=O)OCOC(=O)C(C)(C)C)=C(C)CS[C@H]12)c1csc(N)n1 | inactive: 1.13% | –
27 | Cc1ccc(NC(=O)c2ccc(CN3CCN(C)CC3)cc2)cc1Nc1nc(-c2cccnc2)cs1 | inactive: -1.31% | –
28 | COc1cc(NC(=O)Cn2c(=O)n(CC3CCC(C(=O)NCCc4ccccc4)CC3)c(=O)c3ccccc32)cc(OC)c1 (centres undefined) | inactive: -8.95% | –
29 | OCCCc1ccccc1 | inactive: -3.8% | –
30 | CCc1ccc(C(=O)c2cn(CC(=O)Nc3ccc4c(c3)OCCO4)c3ccc(F)cc3c2=O)cc1 | inactive: -17.1% | –
31 | CCCCN(CC)CCCNC(=O)c1c(C)oc2ncnc(N3CCOCC3)c12 | inactive: -8.73% | –
32 | CCc1nn2c(=O)cc(COC(=O)c3cccc(NC(=O)CCc4ccccc4)c3)nc2s1 | inactive: -0.72% | –
33 | CCn1cc(/C=C(\NC(=O)c2ccc(OC)cc2)C(=O)NCCCn2ccnc2)c2ccccc21 | inactive: -0.475% | –
34 | COc1ccccc1CNC(=O)C1CCN(c2nc3ccc(Cl)cc3[nH]2)CC1 | inactive: 2.51% | –
35 | CCCCc1ccc(-n2nc3cc(C)c(NC(=O)c4ccc(C#N)cc4F)cc3n2)cc1 | inactive: -8.85% | –
36 | COc1cc2c(=O)n(CCC(=O)NCC3CCCO3)c(=O)n(CC(=O)Nc3ccccc3C)c2cc1OC (centres undefined) | inactive: -13.6% | –
37 | CCc1nn(CC(=O)NCCc2ccc(OC)cc2OC)c(=O)c2cc3occc3n12 | inactive: -18.2% | –
38 | COC(=O)c1cc(-c2ccc(C)cc2)c2c(=O)n(C)c(=O)n(C)c2n1 | inactive: -24.9% | –
39 | Cc1nc(-c2ccc(F)cc2)sc1CCNC(=O)C(=O)Nc1ccc2c(c1)OCCO2 | inactive: -19.8% | –
40 | OCCN(CCO)c1ncnc2c1cnn2-c1ccc(F)cc1 | inactive: 44.5% | –
41 | COc1ccccc1C(=O)Oc1ccc(C(c2c(C)[nH][nH]c2=O)c2c(C)[nH][nH]c2=O)cc1 | inactive: 0.781% [at 11.5 µM] | –
42 | COc1cccc(CNC(=O)c2cc(S(=O)(=O)N3CCCCC3)c[nH]2)c1 | inactive: -9.92% | –
43 | COc1ccc2oc(=O)c(C(=O)N3CCN(c4ccc(C)cc4)CC3)cc2c1 | inactive: 9.79% | –
44 | COc1ccc(CC(=O)Nc2ccc(-c3nc4ccccc4s3)c(C)c2)cc1OC | inactive: -32.1% | –
45 | Cc1csc2nc(COC(=O)c3ccccc3NC(=O)c3ccc(C(C)(C)C)cc3)cc(=O)n12 | inactive: -23.3% | –
46 | O=C(CCCn1c(=O)c2cccn2c2ccccc21)NCCc1ccc(Cl)cc1 | inactive: -12.4% | –
47 | Cc1ccc(S(=O)(=O)NC(=O)NN2CC3CCCC3C2)cc1 (centres undefined) | inactive | –
48 | CCOc1cccc2sc(N(Cc3cccnc3)C(=O)c3ccc(C#N)cc3)nc12 | inactive: -22.8% | –

Row | SMILES | activity change, negative = inhibition | Potency
49 | Cc1c(CC(=O)NCc2ccc(F)cc2)c(=O)oc2cc(O)c(Cl)cc12 | inactive: -9.45% | –
50 | COc1ccc(NC(=O)CC2NCCNC2=O)c(OC)c1 (centres undefined) | inactive: -18.7% | –
51 | Cc1cc(C)n(-c2nc3ccccc3nc2N2CCN(c3cccc(C(F)(F)F)c3)CC2)n1 | inactive: -3.74% | –
52 | Cc1ccc(-n2c(SCc3ccccc3)nc3c([nH]c4ccccc43)c2=O)cc1 | inactive: -9.77% | –
53 | COc1ccc(CNC(=O)c2ccc3nc(-c4ccc(F)cc4)c(-c4ccc(F)cc4)nc3c2)cc1 | inactive: -4.23% | –
54 | CCC1(C)Cc2c(sc3nc(SC)n(-c4ccc(C)cc4)c(=O)c23)CO1 (centres undefined) | inactive: -16.4% | –
55 | Cc1nnc(NC(=O)c2ccccc2)s1 | inactive: 62.4% | –
56 | O=C(Nc1ccc(-c2nc3cc(Cl)ccc3o2)cc1)c1cc2ccccc2o1 | inactive: -12.3% | –
57 | Cc1cc(NC(=O)CCNS(=O)(=O)c2cccc3nsnc23)ccc1Br | inactive: -27.5% | –
58 | Cc1ccc(NC(=O)c2ccccc2Br)c(C(=O)c2ccccc2)c1 | inactive: -23.6% | –
59 | CC1CCN(c2nc3ccc(C(=O)NCc4ccccc4)cc3s2)CC1 | – | active: 112 nM
60 | COc1ccc(Cn2c(SCc3ccc(C(=O)NC(C)c4ccccc4)cc3)nc3cccnc32)cc1 (centres undefined) | inactive: -12.3% | –
61 | CCOC(=O)CNC(=O)N1CCN(c2nnc(C)c3c(C)n(-c4ccc(Cl)cc4)nc23)CC1 | inactive: -15.8% | –
62 | CCc1ccc(S(=O)(=O)c2nnn3c2nc(Nc2ccc(NC(C)=O)cc2)c2sccc23)cc1 | inactive: -4.05% | –
63 | O=C(Nc1ccc(Cl)cc1)C(NS(=O)(=O)c1cccs1)c1ccccc1 (centres undefined) | inactive: -20.6% | –
64 | Cc1cccc(OCC(=O)Nc2nnc(S(=O)(=O)N3CCc4ccccc43)s2)c1 | inactive: -15.3% | –
65 | Cc1cccc(NC(=O)C(=O)NCCc2csc(-c3ccc(F)cc3)n2)c1C | inactive: -27.8% | –
66 | CCN(C(=O)c1cn(CC)c(=O)c2cc(OC)c(OC)cc12)c1ccccc1F | inactive: -8.42% | –
67 | COc1ccc(CCC(=O)NC2CC(=O)N(c3ccc(OC)cc3)C2)cc1 (centres undefined) | inactive: -6.23% | –
68 | Cc1cc(N2CCCCC2)nc2ccc(NC(=O)CCC(=O)N3CCN(c4ccccc4)CC3)cc12 | inactive: -15.1% | –
69 | COc1cc(C(=O)Nc2ccccc2-c2nc(-c3ccc(C)cc3)no2)cc(OC)c1OC | inactive: 1.96% | –
70 | COc1ccc(NC(=O)CN2C(=O)c3cccnc3Sc3ccccc32)cc1OC | inactive: 8.97% | –
71 | Cc1cccc(N2CCN(C(=O)c3ccc(Nc4nc5ccccc5n5nnnc45)cc3)CC2)c1C | inactive: 16.4% | –
72 | CCOC(=O)c1ccc(NC(=O)C2=C(C)Nc3nc(CCCO)nn3C2c2ccc(OC)cc2)cc1 (centres undefined) | inactive: -17% | –

Row | SMILES | activity change, negative = inhibition | Potency
73 | CC1=C(C(=O)Nc2cc(Cl)ccc2C)C(c2cccs2)n2ncnc2N1 (centres undefined) | inactive: -2.12% | –
74 | CCN1CCN(C(=O)N[C@H](C(=O)N[C@@H]2C(=O)N3C(C(=O)O)=C(CSc4nnnn4C)CS[C@@H]23)c2ccc(O)cc2)C(=O)C1=O | inactive: 1.19% [at 19.1 µM] | –
75 | COc1ccc(CCNC(=O)C(C)n2c(=O)cc(-c3ccccc3)c3c(C)nn(C)c32)cc1OC (centres undefined) | inactive: -1.49% | –
76 | CCSc1nc(-c2ccccc2F)nc2c1Cc1c(CO)cnc(C)c1O2 | inactive: -13.9% | –
77 | COc1cccc(N2CCN(C(=O)c3nn(C)c4c3CSc3ccc(C)cc3-4)CC2)c1 | inactive: -15.3% | –
78 | CCC(=O)N1CCc2cc(CNC(=O)c3ccc(F)cc3)ccc21 | inactive: 21.2% | –
79 | Cc1ccc(-c2nc3sccn3c2Nc2ccc(C)c(C)c2)cc1 | inactive: 0% | –
80 | Cc1nn2c(=O)cc(COC(=O)c3ccccc3NC(=O)COc3ccccc3C)nc2s1 | inactive: -16.9% | –
81 | Cc1ccc(SCc2nc(-c3ccc(C(=O)NCCc4ccc(Cl)cc4)cc3)oc2C)cc1 | inactive: -17.9% [at 11.5 µM] | –
82 | CCN(CC)CCOc1ccc(Cc2ccccc2)cc1 | inactive | –
83 | CCOC(=O)c1cc(OC(=O)c2ccccc2Cl)n(-c2ccccc2)n1 | inactive: -12.9% | –
84 | COC(=O)c1cc2sc(Cl)cc2n1CC(=O)Nc1cc(C)cc(C)c1 | inactive: -15.5% | –
85 | COC(=O)c1cc2occc2n1CC(=O)Nc1ccc(N(C)C)cc1 | inactive: 6.52% | –
86 | Cc1ccc(CNC(=O)Cn2c(=O)n(-c3ccc(C)cc3)c(=O)c3c2c2cc(C)ccc2n3C)cc1 | inactive: 8.43% | –
87 | COC(=O)c1c(N)n(-c2ccc(OC)c(OC)c2)c2nc3ccccc3nc12 | inactive: -2.82% | –
88 | N#Cc1nc(-c2ccc(COc3ccccc3)o2)oc1N1CCCCC1 | inactive: -31% | –
89 | Cc1ccccc1NC(=O)Cn1c(=O)n(Cc2ccccc2)c(=O)c2c(C)c(C)sc21 | inactive: -1.87% | –
90 | CCC(Sc1nnc2c3ccccc3n(CC)c2n1)C(=O)Nc1nnc(C(C)C)s1 (centres undefined) | inactive: -12.6% | –
91 | COc1ccc(-c2cc3nc(C4CCN(C(=O)OC(C)(C)C)CC4)c(C(=O)Nc4cc(C)cc(C)c4)cn3n2)cc1 | inactive: -17.8% | –
92 | Cn1c(=O)cc(SCC(=O)N2CCN(c3ccccc3F)CC2)c2ccccc21 | inactive: -10% | –
93 | CCCN1CCN(CCCNC(=O)c2ccc3nc(Cc4ccccc4)oc3c2)CC1 | inactive: -17.4% | –
94 | CCOc1ccc(CN(CCc2ccc3c(c2)OCO3)Cc2cc(OC)c(OC)cc2OC)cc1 | inactive: -18.3% | –
